Key:
Format in all cases: cell-based, human
[1] = test system: HDM specific T-cell lines from HDM allergic donors; experiment: T cell reactivity of protein: IL-5/IFNg FluoroSPOT or 72 h T cell proliferation in HDM specific T-cell lines (Example 2); conditions: responding donors of tested HDM allergic donors
From the text: PBMCs from European HDM-allergic individuals were recruited in the Copenhagen region (defined by clinical history of allergy to house dust mite and specific IgE to group 1 and group 2 major allergens from Der p and/or Der f and with measured specific IgE (CAP) >0.7 kU/L towards Der p/f 1 or Der p/f 2. In addition, PBMCs from 10 US HDM-allergic individuals were recruited in San Diego (defined by Der p extract IgE titers greater than 0.35 kUA/L). PBMCs were isolated from whole blood by density gradient centrifugation according to manufacturers' instructions (Ficoll-Hypaque, Amersham Biosciences, Uppsala, Sweden). Der p- and Der f-specific extract IgE titers were determined using the ImmunoCAP system (Thermo Fisher, Uppsala, Sweden). […]
T cells reactivity was determined by establishment of HDM specific T-cell lines according to standard methods. […] The responses to proteins having SEQ ID NOs 1-44 were assessed by IL-5/IFNg FluoroSPOT (Mabtech FS-0108-10) according manufacturer protocol, (after 2 weeks) or proliferation in a standard 72 h T cell proliferation assay, as described in Henmar H et al., Clin Exp Immunol 2008; 153(3):316-23. […]

[2] = test system: basophils in whole blood from HDM allergic donors; experiment: Basophil Activation Test (BAT); conditions: blood from HDM allergic individuals (n=14)
Description: Basophil Activation Test (BAT) was used as a predictive in vitro assay for indication of safety/immediate hypersensitivity reactions. The BAT assay is a widely used diagnostic test that is also used for evaluation of allergenicity of allergen derived components. In short: whole blood from HDM allergic donors was stimulated for 1 h with the proteins, and the increased expression of activation markers on the surface of basophils were measured by flow cytometry. The BAT test was carried out using different concentrations of the proteins and the allergens Der p 2 and Der p 1 was used as controls and tested in the same concentration rates.
(§1) This example relates to the further testing of immunogenicity of the proteins identified in Example 1. Their ability to react with IgE antibodies in HDM allergic individuals, to stimulate in vitro T cell proliferation of HDM allergic individuals and non-allergics, and to stimulate ex vivo cytokine production of HDM allergic individuals and non-allergics. The following tests were used: • Basophil Activation Test (BAT) was used as a predictive in vitro assay for indication of safety/immediate hypersensitivity reactions. BAT test was carried out using blood from HDM allergic individuals (n=14), and by use of different concentrations of test proteins or the major house dust mite allergens (Der p 1, Der f 1, Der p 2 or Der f 2, e.g. a concentration of 1, 10, 100 or 1000 ng/ml. • In vitro T cell reactivity determined in T cell lines obtained from HDM allergic individuals (n=30) and non-allergics (n=8): Determined by establishment of HDM specific T-cell lines according to standard methods. In short, PMBCs from HDM allergic donors were cultured for 3 weeks in the presence of house dust mite allergen extract. The responses to proteins at a concentration of 0.5 ug/ml or 2 ug/ml of the test protein or the major house dust mite allergens (Der p 1, Der f 1, Der p 2 or Der f 2) were assessed by proliferation in a standard 72 h T cell proliferation assay, as described in Henmar H et al., Clin Exp Immunol 2008; 153(3):316-23. […]. • Ex vivo stimulation of PBMC cells obtained from mite allergic patients (n=16) and non-allergics (n=6): Determined by measuring the production of the cytokines; IFN-gamma, IL-9, IL-10, IL-17 and IL-31 following stimulation with test protein in concentration up to 10 ug/ml. Freshly isolated PBMC 5×10^6/ml were cultured with a test protein for 5 days and cell supernatant were harvested and stored at −80° C. Cytokines of the supernatants were measured using ProcartaPlex Multiplex Immunoassays with MAGPIX Multiplex Reader according manufactory protocol.

[3] = test system: PBMC cells obtained from mite allergic patients and non-allergics; experiment: Ex vivo stimulation of PBMC: cytokine production (IFN-gamma, IL-9, IL-10, IL-17, IL-31)
From the text: as §1

[4] = test system: T cell lines obtained from HDM allergic individuals and non-allergics; experiment: In vitro T cell proliferation test in T cell lines (Example 3); conditions: 0.5 or 2 ug/ml, 72 h
From the text: This example relates to the further testing of immunogenicity of the proteins identified in Example 1. Their ability to react with IgE antibodies in HDM allergic individuals, to stimulate in vitro T cell proliferation of HDM allergic individuals and non-allergics, and to stimulate ex vivo cytokine production of HDM allergic individuals and non-allergics. The following tests were used: • Basophil Activation Test (BAT) was used as a predictive in vitro assay for indication of safety/immediate hypersensitivity reactions. […] T cell reactivity was. • Ex vivo stimulation of PBMC cells obtained from mite allergic patients (n=16) and non-allergics (n=6): Determined by measuring the production of the cytokines; IFN-gamma, IL-9, IL-10, IL-17 and IL-31 following stimulation with test protein in concentration up to 10 ug/ml. […] Cytokines of the supernatants were measured using ProcartaPlex Multiplex Immunoassays with MAGPIX Multiplex Reader according manufactory protocol.

B1: 27 (protein, listed as Dermatophagoides pteronyssinus)
chain: SPTGWNIRTFEQFKIQFNKHYDSIEQEEHARENFLETLKYVDANPDKAVINEFADLSAEEFADGYLMSEESMQDSEQQLKLLRAGYDYHDDPECLFDENLEAPKQVDLRPDLSPIMRQTLHCGCCWAISPISSAESAYKARYNVSIQLSVQELVNCAVEHGCEIGKTAIAFNYLVTNGTTTQKAYPYTAKEGACNPPEKPRYTLENWCAYIDPSIKNKNKPDLRKVLAQKRTSITVQISIKNVKAFAHHNGSFIIRENSFPDEGKPSGHAINIVGYGTKDGVDYWIVRNSWSTGWGDKGYFYVERGVNWWGIEEYAFIATF
[1]
  % T cell responding donors to protein: 1 of 24

B2: A015: house dust mite protein; SEQ ID NO: 26 (Der f), 27 (Der p), 312 (Blo t) (protein)
chain: SPTGWNIRTFEQFKIQFNKHYDSIEQEEHARENFLETLKYVDANPDKAVINEFADLSAEEFADGYLMSEESMQDSEQQLKLLRAGYDYHDDPECLFDENLEAPKQVDLRPDLSPIMRQTLHCGCCWAISPISSAESAYKARYNVSIQLSVQELVNCAVEHGCEIGKTAIAFNYLVTNGTTTQKAYPYTAKEGACNPPEKPRYTLENWCAYIDPSIKNKNKPDLRKVLAQKRTSITVQISIKNVKAFAHHNGSFIIRENSFPDEGKPSGHAINIVGYGTKDGVDYWIVRNSWSTGWGDKGYFYVERGVNWWGIEEYAFIATF
[2]; 1 ng/ml
  # of individuals of 14 with positive BAT test: 0
[2]; 10 ng/ml
  # of individuals of 14 with positive BAT test: 0
[2]; 100 ng/ml
  # of individuals of 14 with positive BAT test: 0
[2]; 1000 ng/ml
  # of individuals of 14 with positive BAT test: 0
[3]; HDM allergic individuals, IL-5
  % HDM allergic individuals with cytokine production in ex-vivo T cell assay IL-5: 6%
[3]; HDM allergic individuals, IL-9
  % HDM allergic individuals with cytokine production in ex-vivo T cell assay IL-9: 0%
[3]; HDM allergic individuals, IL-10
  % HDM allergic individuals with cytokine production in ex-vivo T cell assay IL-10: 75%
[3]; HDM allergic individuals, IL-13
  % HDM allergic individuals with cytokine production in ex-vivo T cell assay IL-13: 6%
[3]; HDM allergic individuals, IL-17
  % HDM allergic individuals with cytokine production in ex-vivo T cell assay IL-17: 44%
[3]; HDM allergic individuals, IL-31
  % HDM allergic individuals with cytokine production in ex-vivo T cell assay IL-31: 6%
[3]; HDM allergic individuals, INF-g
  % HDM allergic individuals with cytokine production in ex-vivo T cell assay INF-g: 25%
[3]; non-allergic individuals, IL-5
  % non-allergic individuals with cytokine production in ex-vivo T cell assay IL-5: 0%
[3]; non-allergic individuals, IL-9
  % non-allergic individuals with cytokine production in ex-vivo T cell assay IL-9: 0%
[3]; non-allergic individuals, IL-10
  % non-allergic individuals with cytokine production in ex-vivo T cell assay IL-10: 67%
[3]; non-allergic individuals, IL-13
  % non-allergic individuals with cytokine production in ex-vivo T cell assay IL-13: 0%
[3]; non-allergic individuals, IL-17
  % non-allergic individuals with cytokine production in ex-vivo T cell assay IL-17: 50%
[3]; non-allergic individuals, IL-31
  % non-allergic individuals with cytokine production in ex-vivo T cell assay IL-31: 0%
[3]; non-allergic individuals, INF-g
  % non-allergic individuals with cytokine production in ex-vivo T cell assay INF-g: 33%
[4]; T cell lines from HDM allergic individuals (n=30)
  % responders of in-vitro T cell proliferation test, Allergic: 4%
[4]; T cell lines from non-allergics (n=8)
  % responders of in-vitro T cell proliferation test, Non-allergics: 0%

From patent US10556936B2, “Immunogenic proteins and fragments thereof from allergenic mites” (ALK-ABELLÓ A/S, priority 2016, dated 2020)
